# Values joined by “and” are separate entries in the source; they are usually repeats but may differ in a detail not shown here. Equal values may be shown once. Active and inactive are the calls of the source. Unless noted, the call rests on the fitted dose curve; in most records, active means well fitted curve in the direction sought with a large enough effect in the repeat runs; inconclusive means weak or mixed curves; inactive means no such curve, though single readings can be large; an effect the other way counts as inactive or inconclusive.
# What was measured:
# [1] = qHTS assay to identify small molecule antagonists of the androgen receptor (AR) signaling pathway using the MDA cell line - cell viability counter screen (AID 743041; further: nearly all actives have a fitted effect of over 45% in size); conditions: MDA-kb2 viability, CellTiter-Fluor, 16 h, cells co-treated with R1881 androgen agonist; viability change, negative = cytotoxic: at 70.3 µM (top of the series) unless noted
# Procedure, shortened: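 MDA-kb2 AR-luc cells (MMTV-luciferase, AR/GR responsive) treated with compounds plus R1881 agonist for 16 h at 37C. CellTiter-Fluor added at 15.5 h; fluorescence read after 30 min in the same wells.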
# [2] = qHTS assay to identify small molecule antagonists of the thyroid receptor (TR) signaling pathway - cell viability counter screen (AID 743064); conditions: GH3.TRE-Luc viability, CellTiter-Fluor, 24 h; activity change, negative = cytotoxic: at 70.3 µM (top of the series); further: nearly all actives have a fitted effect of over 50% in size; on activity change, negative = cytotoxic: on the % scale 0 is the no-effect control and ±100 the full control effect
# Procedure, shortened: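 Rat GH3 pituitary tumor cells stably expressing two TR response elements driving luciferase were plated, rested 4 h, then dosed with library compounds and T3 (1 nM final). After 23.5 h at 37 °C, CellTiter-Fluor was added for 30 min and fluorescence recorded.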
# [3] = target: Estrogen receptor (Homo sapiens) (UniProt P03372); assay: qHTS assay to identify small molecule antagonists of the estrogen receptor alpha (ER-alpha) signaling pathway (AID 743069; active means well fitted curve in the direction sought with a large enough effect in the signal ratio in the repeat runs, not every such curve was filed as active; inconclusive means weak or mixed curves, or effect the other way; inactive means no such curve, though single readings can be large or run the other way; the % refers to the signal ratio; on activity, negative = inhibition: on the % scale 0 is the no-effect control and ±100 the full control effect); conditions: HEK293 ER-alpha-UAS-bla, beta-lactamase ratio, antagonist mode; activity, negative = inhibition: at 69.4 µM (top of the series)
# UniProt P03372, sequence (P03372 whole entry, looked up): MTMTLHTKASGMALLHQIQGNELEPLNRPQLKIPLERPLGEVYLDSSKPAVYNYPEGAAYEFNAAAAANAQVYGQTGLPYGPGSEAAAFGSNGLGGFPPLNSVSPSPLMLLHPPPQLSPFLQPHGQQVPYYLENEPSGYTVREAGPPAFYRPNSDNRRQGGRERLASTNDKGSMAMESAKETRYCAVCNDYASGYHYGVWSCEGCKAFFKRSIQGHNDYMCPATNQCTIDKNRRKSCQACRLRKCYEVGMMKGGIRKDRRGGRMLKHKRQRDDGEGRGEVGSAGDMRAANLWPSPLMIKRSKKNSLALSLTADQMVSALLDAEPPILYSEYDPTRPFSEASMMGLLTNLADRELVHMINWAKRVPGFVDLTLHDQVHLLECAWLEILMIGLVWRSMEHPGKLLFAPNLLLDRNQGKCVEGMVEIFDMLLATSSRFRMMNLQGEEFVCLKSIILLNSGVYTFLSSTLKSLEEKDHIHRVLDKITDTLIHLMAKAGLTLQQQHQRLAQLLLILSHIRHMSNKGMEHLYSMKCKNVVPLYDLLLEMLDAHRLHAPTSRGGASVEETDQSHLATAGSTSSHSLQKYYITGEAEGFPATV
# Procedure, shortened: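 HEK293 ER-alpha-UAS-bla GripTite cells, held overnight in 2% charcoal-stripped FBS, 5,000 cells/well, preincubated 4 h, then compound plus 17beta-estradiol for 18 h at 37C. Beta-lactamase read by LiveBLAzer B/G FRET substrate, 2 h at room temperature.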
# [4] = target: Estrogen receptor (Homo sapiens) (UniProt P03372); assay: qHTS assay to identify small molecule agonists of the estrogen receptor alpha (ER-alpha) signaling pathway using the BG1 cell line (AID 743079); conditions: BG1Luc4E2 cells, ERE-luciferase agonist, 22 h; activation: at 70.3 µM (top of the series) unless noted; further: nearly all actives have a fitted effect of over 20% in size; on activation: on the % scale 0 is the no-effect control and ±100 the full control effect
# [5] = qHTS assay to identify aromatase inhibitors - cell viability counter screen (AID 743084);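 further: cells stimulated with testosterone during compound exposure; nearly all actives have a fitted effect of over 55% in size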
# [6] = target: Peroxisome proliferator-activated receptor gamma (Homo sapiens) (UniProt P37231); assay: qHTS assay to identify small molecule antagonists of the peroxisome proliferator-activated receptor gamma (PPARg) signaling pathway (AID 743191; calls by dose curve; further: nearly all actives have a fitted effect of over 30% in size); conditions: HEK293H PPARg-UAS-bla, beta-lactamase ratio, antagonist, 17 h; ratio activity, negative = inhibition: at 62.6 µM (top of the series) unless noted
# UniProt P37231, sequence (P37231 whole entry, looked up): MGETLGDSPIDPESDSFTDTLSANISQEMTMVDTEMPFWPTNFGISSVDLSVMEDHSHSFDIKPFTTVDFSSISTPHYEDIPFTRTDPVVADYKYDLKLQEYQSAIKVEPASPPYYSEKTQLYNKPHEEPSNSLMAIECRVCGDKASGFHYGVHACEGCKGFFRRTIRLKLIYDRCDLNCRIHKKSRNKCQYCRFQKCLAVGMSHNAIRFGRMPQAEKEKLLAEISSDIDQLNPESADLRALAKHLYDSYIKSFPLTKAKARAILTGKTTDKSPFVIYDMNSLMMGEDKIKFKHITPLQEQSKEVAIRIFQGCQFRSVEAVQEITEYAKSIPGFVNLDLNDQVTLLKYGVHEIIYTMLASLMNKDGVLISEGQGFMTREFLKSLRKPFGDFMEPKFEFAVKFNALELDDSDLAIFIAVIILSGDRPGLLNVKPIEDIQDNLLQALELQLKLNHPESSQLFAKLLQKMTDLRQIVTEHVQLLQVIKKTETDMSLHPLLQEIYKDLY
# Procedure, shortened: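 GeneBLAzer PPARg UAS-bla HEK293H cells, 5 h post-plating, exposed to compounds 17 h at 37C. LiveBLAzer B/G FRET substrate added for 1 h at room temperature; beta-lactamase reporter read by fluorescence intensity.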
# [7] = test system: thyroid hormone receptor (rat, GH3 cells); assay: qHTS assay to identify small molecule agonists of the thyroid receptor (TR) signaling pathway (AID 743066; calls by dose curve); conditions: GH3.TRE-Luc cells, TR agonist luciferase, 24 h; activation: at 83.9 µM (top of the series) unless noted
# [8] = qHTS assay to identify small molecule antagonists of the estrogen receptor alpha (ER-alpha) signaling pathway - cell viability counter screen (AID 743074; calls by dose curve;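 further: HEK293 cells carrying ER-alpha-UAS-bla reporter stimulated with 17beta-estradiol; nearly all actives have a fitted effect of over 45% in size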)
# [9] = target: Estrogen receptor (Homo sapiens) (UniProt P03372); assay: qHTS assay to identify small molecule agonists of the estrogen receptor alpha (ER-alpha) signaling pathway (AID 743075; calls by dose curve); conditions: HEK293 ER-alpha-UAS-bla, beta-lactamase FRET ratio, 18 h; activation: at 70.1 µM (top of the series)
# [10] = qHTS assay to identify small molecule antagonists of the estrogen receptor alpha (ER-alpha) signaling pathway using the BG1 cell line (AID 743080; calls by dose curve;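 further: BG1 cells stimulated with 17beta-estradiol alongside compound; nearly all actives have a fitted effect of over 25% in size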); conditions: BG1Luc4E2 ERE-luciferase antagonist mode, luminescence; activity change, negative = inhibition: at 70.3 µM (top of the series) unless noted
# Procedure, shortened: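 After 5 days in phenol-red-free 10% charcoal-stripped FBS medium, BG1-Luc-4E2 cells were seeded, left 24 h at 37 C, co-treated with compounds and 17beta-estradiol for 21.5 h, then assayed for viability and luciferase.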
# [11] = qHTS assay to identify small molecule antagonists of the estrogen receptor alpha (ER-alpha) signaling pathway using the BG1 cell line - cell viability counter screen (AID 743081);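 further: compound given together with 17beta-estradiol as the ER stimulus; nearly all actives have a fitted effect of over 45% in size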
# Aromatase (Homo sapiens) = Aromatase (Homo sapiens) (UniProt P11511); assay: qHTS assay to identify aromatase inhibitors (AID 743083); further: nearly all actives have a fitted effect of over 55% in size
# UniProt P11511, sequence (P11511 whole entry, looked up): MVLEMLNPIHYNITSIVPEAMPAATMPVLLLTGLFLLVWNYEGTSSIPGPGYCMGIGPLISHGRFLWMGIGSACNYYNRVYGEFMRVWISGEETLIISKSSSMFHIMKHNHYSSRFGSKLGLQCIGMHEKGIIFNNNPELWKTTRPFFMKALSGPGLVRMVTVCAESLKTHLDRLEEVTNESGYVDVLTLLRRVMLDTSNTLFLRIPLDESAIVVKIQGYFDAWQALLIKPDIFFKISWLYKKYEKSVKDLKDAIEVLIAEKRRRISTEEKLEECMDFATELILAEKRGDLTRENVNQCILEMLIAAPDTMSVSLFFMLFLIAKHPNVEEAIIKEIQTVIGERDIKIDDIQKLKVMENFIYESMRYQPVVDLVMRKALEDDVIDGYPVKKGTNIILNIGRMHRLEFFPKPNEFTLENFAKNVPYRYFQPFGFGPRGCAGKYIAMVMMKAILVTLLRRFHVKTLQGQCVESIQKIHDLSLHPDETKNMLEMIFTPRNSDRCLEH
# [12] = target: Aryl hydrocarbon receptor (Homo sapiens) (UniProt P35869); assay: qHTS assay to identify small molecule that activate the aryl hydrocarbon receptor (AhR) signaling pathway (AID 743085); further: nearly all actives have a fitted effect of over 15% in size;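 on activation: HG2L7.5c1 human HepG2 liver cells with stably integrated DRE-driven firefly reporter; on the % scale 0 is the no-effect control and ±100 the full control effect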
# UniProt P35869, sequence (P35869 whole entry, looked up): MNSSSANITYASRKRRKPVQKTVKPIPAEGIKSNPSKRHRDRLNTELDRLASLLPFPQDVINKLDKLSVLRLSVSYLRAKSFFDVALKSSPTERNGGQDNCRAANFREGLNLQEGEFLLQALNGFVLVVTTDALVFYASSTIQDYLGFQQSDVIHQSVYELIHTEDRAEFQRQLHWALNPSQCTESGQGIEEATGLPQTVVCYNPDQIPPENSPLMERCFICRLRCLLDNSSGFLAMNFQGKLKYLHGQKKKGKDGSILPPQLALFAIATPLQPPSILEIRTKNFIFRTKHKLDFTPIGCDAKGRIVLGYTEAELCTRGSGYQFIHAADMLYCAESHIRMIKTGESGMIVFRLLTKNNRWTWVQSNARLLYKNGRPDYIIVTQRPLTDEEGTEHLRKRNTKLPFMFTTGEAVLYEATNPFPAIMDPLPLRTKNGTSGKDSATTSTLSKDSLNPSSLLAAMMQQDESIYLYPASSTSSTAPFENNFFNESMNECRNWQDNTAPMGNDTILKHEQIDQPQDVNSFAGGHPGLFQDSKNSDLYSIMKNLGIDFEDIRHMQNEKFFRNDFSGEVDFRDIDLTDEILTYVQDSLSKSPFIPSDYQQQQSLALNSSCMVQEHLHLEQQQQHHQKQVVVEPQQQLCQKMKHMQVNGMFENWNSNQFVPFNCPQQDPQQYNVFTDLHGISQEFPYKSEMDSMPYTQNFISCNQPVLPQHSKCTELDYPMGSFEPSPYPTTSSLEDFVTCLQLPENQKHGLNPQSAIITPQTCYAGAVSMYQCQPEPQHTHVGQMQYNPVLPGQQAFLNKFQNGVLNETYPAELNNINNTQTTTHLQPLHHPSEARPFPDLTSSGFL
# Procedure, shortened: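 Compounds were tested in HepG2 hepatocellular carcinoma cells harbouring a stably integrated luciferase gene under control of 20 DREs. Increased reporter signal after 24 h treatment at 37C was taken as AhR activation.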
# [13] = target: Peroxisome proliferator-activated receptor gamma (Homo sapiens) (UniProt P37231); assay: qHTS assay to identify small molecule agonists of the peroxisome proliferator-activated receptor gamma (PPARg) signaling pathway (AID 743094; active means well fitted activation curve with a large enough effect in the signal ratio in the repeat runs, not every such curve was filed as active; inconclusive means weak or mixed curves, or effect the other way; inactive means no such curve, though single readings can be large or run the other way; the % refers to the signal ratio); conditions: HEK293H PPARg-UAS-bla, beta-lactamase FRET ratio, 17 h; activation: at 57 µM (top of the series) unless noted
# Procedure, shortened: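 Beta-lactamase FRET fluorescence was the read-out after a 1 h room-temperature substrate step, following 17 h compound treatment at 37C of HEK293H cells expressing a UAS-driven bla reporter responsive to PPARg.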
# [14] = qHTS assay to identify small molecule antagonists of the thyroid receptor (TR) signaling pathway (AID 743065); further: nearly all actives have a fitted effect of over 55% in size
# Procedure, shortened: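 GH3.TRE-Luc rat pituitary cells (two TREs driving luciferase) were dosed with compound, then stimulated with 1 nM T3 (final) for 23.5 h at 37 C. ONE-Glo luminescence was the read-out, with CellTiter-Fluor fluorescence as the cytotoxicity counter-screen.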
# [15] = qHTS assay to identify small molecule that activate the aryl hydrocarbon receptor (AhR) signaling pathway - cell viability counter screen (AID 743086); further: nearly all actives have a fitted effect of over 45% in size
# Procedure, shortened: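 HepG2-AhR-luc (HG2L7.5c1) cells, 4000/well, treated 24 h at 37 C with compound; viability measured as CellTiter-Fluor fluorescence after 30 min in the same wells as the luciferase read.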
# Potency means the concentration at half of the fitted maximal effect; tags describe the fitted curve by direction and shape or compound fluorescence and quenching.
structure (smiles),measurement,setting,value
CC(C)C(=O)OCC(C)(C)C(OC(=O)C(C)C)C(C)C (configuration not stated),Potency,[1],"inconclusive: 69.1 µM [rising, partial curve, poor fit]"
same,Potency,[2],"inconclusive: 69.1 µM [cytotoxic, single point]"
same,"activity, negative = inhibition",[3],inconclusive: 19.9%
same,Potency,[4],active: 12.2 µM
same,activation,[4],inconclusive: -23.7% [phenotype inactive] [at 95 µM]
same,Potency,[5],inactive
same,Potency,[6],"inconclusive: 55.4 µM [cytotoxic, single point]"
[F][Sn]([c]1ccccc1)([c]1ccccc1)[c]1ccccc1,Potency,[1],active: 3.86 µM
same,Potency,[2],active: 0.77 µM
same,Potency,[7],"inconclusive: 0.864 µM [inhibitor, full curve]"
same,Potency,[3],inconclusive: 871 nM [full curve]
same,Potency,[8],active: 1.1 µM
same,Potency,[9],active: 2.19 µM [inconclusive]
same,Potency,[4],"inconclusive: 2.73 µM [inhibitor, full curve]"
same,Potency,[10],active: 1.93 µM
same,Potency,[11],active: 7.7 µM
same,Potency,Aromatase (Homo sapiens),"inconclusive: 1.09 µM [inhibitor, full curve, poor fit]"
same,Potency,[12],inactive
same,Potency,[13],"inconclusive: 21.9 µM [falling, full curve]"
same,Potency,[6],"inconclusive: 13.8 µM [cytotoxic, full curve, poor fit]"
CC(C)=CC1C(C(=O)OCc2coc(Cc3ccccc3)c2)C1(C)C (configuration not stated),Potency,[1],"inconclusive: 24.3 µM [rising, partial curve, poor fit]"
same,Potency,[2],"inactive and inconclusive: 68.5 µM [cytotoxic, single point]"
same,Potency,[14],"inconclusive: 68.7 µM [inhibitor, partial curve, poor fit] and inconclusive: 68.5 µM [inhibitor]"
same,Potency,[4],inactive
same,"activity change, negative = inhibition",[10],inconclusive: -9.72%
same,Potency,[6],"inconclusive: 17.4 µM [rising, partial curve] and inconclusive: 19.5 µM [rising, partial curve]"
CC(C)Oc1cccc(NC(=O)c2ccccc2C(F)(F)F)c1,Potency,[1],"inconclusive: 77 µM [cytotoxic, single point]"
same,Potency,[2],"inconclusive: 4.86 µM [rising, partial curve]"
same,Potency,[14],inconclusive: 68.6 µM [inhibitor]
same,Potency,[8],"inconclusive: 21.9 µM [cytotoxic, single point]"
same,Potency,[11],"inconclusive: 68.6 µM [cytotoxic, partial curve, poor fit]"
same,Potency,Aromatase (Homo sapiens),"inconclusive: 7.7 µM [inhibitor, partial curve, poor fit]"
same,Potency,[12],active: 9.97 µM
same,Potency,[13],inactive
same,Potency,[6],"inconclusive: 21.9 µM [inhibitor, partial curve]"
CCN(CC)CCc1c[nH]c2ccccc12,Potency,[1],inactive
same,Potency,[2],"inconclusive: 45.3 µM [cytotoxic, partial curve, poor fit]"
same,Potency,[14],"inconclusive: 45.3 µM [inhibitor, partial curve]"
same,Potency,[3],inactive
same,"ratio activity, negative = inhibition",[6],inconclusive: 7.66% [at 81.1 µM]
C=CC(=O)OCC(CC)(COC(=O)C=C)COC(=O)C=C,Potency,[1],active: 62.8 µM and active: 30.6 µM
same,Potency,[2],active: 4.99 µM and active: 6.86 µM
same,Potency,[3],inconclusive: 25.2 µM and inconclusive: 21.9 µM
same,Potency,[8],active: 56.4 µM and active: 54.9 µM
same,Potency,[4],"inconclusive: 35.3 µM [inhibitor, full curve] and inconclusive: 43.3 µM [inhibitor, partial curve]"
same,Potency,[10],"inconclusive: 8.87 µM [rising, partial curve] and inconclusive: 7.7 µM [rising, partial curve]"
same,Potency,[11],active: 79 µM and active: 54.5 µM
same,Potency,[5],active: 6.28 µM and active: 6.86 µM
same,Potency,[15],active: 31.5 µM and active: 27.3 µM
same,Potency,[13],"inconclusive: 4.48 µM [activator, full curve, poor fit] and inconclusive: 3.89 µM [activator, full curve, poor fit]"
O=[N+]([O-])c1ccc(Nc2ccccc2)cc1,Potency,[1],active: 61.6 µM and active: 61.1 µM
same,Potency,[2],"inconclusive: 30.9 µM [cytotoxic, full curve]"
same,Potency,[7],"inconclusive: 27.3 µM [inhibitor, partial curve, poor fit]"
same,Potency,[8],"inconclusive: 24.7 µM [cytotoxic, partial curve, poor fit] and inconclusive: 1.95 µM [cytotoxic, full curve, poor fit]"
same,Potency,[4],"inconclusive: 69.1 µM [inhibitor, single point] and inconclusive: 54.5 µM [inhibitor, partial curve]"
same,Potency,[11],active: 48.9 µM and active: 27.3 µM
same,Potency,[5],active: 30.9 µM and active: 27.3 µM
